Among all 48,000 compounds or so, about 450 (0.94%) were called active. Another 19% or so got no clear call; they are omitted. The call rests on the fitted dose curve; in most records, active means well fitted inhibition curve with a large enough effect; inconclusive means small, poorly fitted or top-dose-only effect; inactive means no such curve, though single readings can be large or run the other way. Some of the results follow.
assay: Primary qHTS for Identification of Small Molecule Inhibitors of Huntingtin Promoter Activity; conditions: HEK293 HTT promoter firefly luciferase reporter (activity 0% = vehicle and -100% = no light), 24 h; series mostly up to 57.5 µM; activity change, negative = inhibition: at the top concentration; further: nearly all actives have a fitted effect of over 50% in size
Method in brief: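 Quantitative HTS used concentration series of up to 57.5 uM final on HEK293 luciferase reporter cells, 24 h at 37 degrees C. Readout was Dual-Glo firefly luminescence.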

Activity change, negative = inhibition, inactive:
COc1ccc(-n2nc(C(=O)N3CCN(c4ccc(F)cc4)CC3)c3c4ccccc4n(C)c3c2=O)cc1 -13.4%
COc1ccc(C2CC(c3ccccc3)=NN2c2ccc(S(N)(=O)=O)cc2)cc1 (stereo not drawn) -25.2%
O=C(O)c1ccc(Nc2nc3ccccc3n3cnnc23)cc1 27.9%
COc1ccc(C2CC(=O)N(Cc3ccc(F)cc3)c3ccccc3S2)cc1OC (stereo not drawn) -7.82%
COc1ccc(OC)c2sc(N3CCN(C(=O)c4ccc5c(c4)CCCC5)CC3)nc12 0%
CCCCCn1c(=O)[nH]c2cc(C(=O)NCc3ccc(Cl)cc3)ccc2c1=O -0.429%
c1ccc(N2CCN(Cc3cccn3-c3nnc(N4CCN(C5CCCCC5)CC4)s3)CC2)cc1 -7.87%
CCc1ccccc1NS(=O)(=O)c1ccc2c(c1)CCN2C(=O)C1CC1 -11.5%
CCc1ccc(-c2nn(CC(=O)NC3CCCCC3)c3c2cnc2ccc(C)cc23)cc1 3.44%
O=C(CN1CCN(Cc2cccc(Cl)c2)C1=O)NCc1ccc(F)cc1 12.6%
CCN(c1ccccc1C)S(=O)(=O)c1ccc(N2CCCCS2(=O)=O)cc1 -14.8%
CCOc1ccc(CCNC(=O)c2nn(-c3ccc(OC)c(Cl)c3)c(=O)c3c2c2ccccc2n3C)cc1OCC -1.76%
CC(C)Cn1c(=O)c2sccc2n2c(CCCC(=O)NCCc3ccc(Cl)cc3)nnc12 -16.1%
CCc1ccc(NC(=O)CSc2nc(-c3ccccc3Cl)nc3c2Cc2c(CO)cnc(C)c2O3)cc1 1.05%
COc1ccc(OCC(=O)Nc2ccc3c(c2)nc(CCNC(=O)c2ccco2)n3C)cc1 -24.8%
CC(C)NC(=O)c1ccc(-n2c(-c3ccccc3)cc3c2CCCC3)cc1 15%
CCc1ccc2nc(N(Cc3cccnc3)C(C)=O)sc2c1 3.74%
O=c1ccc2cc(S(=O)(=O)NCc3ccc(Br)cc3)ccc2[nH]1 -20%
Cc1ccc(NC(=O)CSc2nccn2Cc2ccco2)cc1Cl 30.4%
CCC(=O)N1CCc2cc(S(=O)(=O)NC(CC(C)C)C(=O)NCCc3cccc(C)c3)ccc21 (stereo not drawn) -23%
COc1cccc(NC(=O)CSCc2cc(=O)c3ccc(C)c(C)c3[nH]2)c1 80.4%
Cn1c(=O)c2c(n3c4ccccc4nc13)NC(=O)CC2c1cccc(F)c1 (stereo not drawn) -5.64%
CCNc1ccc(-c2nc(-c3ccccn3)no2)cc1[N+](=O)[O-] 75.5%
Cc1cc(NC(=O)COCc2cc(-c3ccc(F)cc3)on2)ccc1Br -18.9%
O=C(CCCCn1c(=O)c2ccccc2n(Cc2ccccc2Cl)c1=O)NCc1ccc2c(c1)OCO2 -8.65%
COC(=O)C1=C(C)NC(C)=C(C(=O)OCC(C)C)C1c1ccccc1[N+](=O)[O-] (stereo not drawn) -22.6%
CCCn1c2ccccc2c2cnn(CC(=O)N3CCN(c4ccccc4F)CC3)c(=O)c21 3.5%
CCOc1ccc(CCNS(=O)(=O)c2c(C)nc3scc(C)n3c2=O)cc1OCC -10.4%
Cc1ccc(Nc2c(-c3ccc(Cl)cc3)nc3sccn23)c(C)c1 -16.6%
CCOc1ccc(CNC(=O)c2ccc3nc(CC)c(CC)nc3c2)cc1 20.1%
CC(C)Oc1cccc(C(=O)Nc2ccc3oc(-c4cccc(Cl)c4)nc3c2)c1 9.15%
Cc1ccc(C)c(NC(=O)N2CCC(CN3CCOCC3)CC2)c1 -10.7%
CCn1c(=O)c2cc(C(=O)NCCCOC)sc2c2ccccc21 -12.2%
Cc1cc(C)n(-c2nc3ccccc3nc2Nc2ccc(Cl)cc2Cl)n1 -11.4%
COc1ccc(CNC(=O)CCC2N=C3c4ccccc4N=C(SCc4cccc(F)c4)N3C2=O)cc1 (stereo not drawn) -19.3%
CC(=O)N1CCCc2cc(S(=O)(=O)NCc3cccc(C)c3)ccc21 -24.7%
CCCN(CCC)C(=O)Cn1nnc2sc(-c3ccccc3)cc2c1=O -4.03%
O=c1c2cnn(-c3ccc(F)cc3)c2ncn1Cc1cccc(Cl)c1 -3.99%
Cc1nn2c(=O)cc(COC(=O)c3cccc(NC(=O)COc4ccccc4Cl)c3)nc2s1 -10.3%
Cc1ccc(C(=O)c2cn(Cc3cccc(C)c3)c3nc(C)ccc3c2=O)cc1 -19.7%
COc1ccc(NC(=O)Cn2c(=O)n(-c3ccccc3)c(=O)c3c4c(sc32)CCCC4)c(OC)c1 -0.872%
CC(C)Oc1ccc(CNS(=O)(=O)c2ccc3c(c2)C(C)(C)C(=O)N3C)cc1 -22.5%
Cc1ccc(NC(=O)CSc2ncc(S(=O)(=O)c3ccc(C(C)C)cc3)c(=O)[nH]2)cc1C -5.19%
Cc1ccc(CNC(=O)c2nc(SCc3ccc(F)cc3)ncc2Cl)cc1 -6.22%
COc1ccc(S(=O)(=O)n2nc(C)c(S(=O)(=O)N3CCCCCC3)c2C)cc1 -7.93%
Cc1cc(C)n2c(Nc3ccc4c(c3)OCCO4)c(-c3ccc(Cl)cc3)nc2n1 4.97%
COC(=O)c1cc(S(=O)(=O)N2CCN(c3ccc(OC)cc3)CC2)c[nH]1 -23.5%
CCCN1CCN(C(=O)Cn2c(-c3cccs3)cc3ccccc32)CC1 -19.6%
Cc1ccc(NC(=O)c2cnc(N3CCCCC3)c3ccccc23)c(C)c1 1.18%
COCCCNC(=O)C1CCN(C(=O)c2cnn(-c3ccccc3)c2-n2cccc2)CC1 -10.9%
CCCCOc1ccc(C2=NC(c3cccs3)=Nc3ccc(CC)cc3N2)cc1 -8.39%
CC(C)CC(=O)Nc1nc2nc(-c3ccccc3)cc(=O)n2[nH]1 -20.3%
CCOC(=O)c1ccc(O)c(O)c1 7.33%
Cc1ccc(N2C(=O)NC(NS(=O)(=O)c3ccccc3)(C(F)(F)F)C2=O)cc1C (stereo not drawn) -17.5%
COc1ccc(CNC(=O)CCCn2nc(C)c3sc4ccccc4c3c2=O)cc1OC -4.98%
CCOc1ccccc1CNC(=O)c1ccc(N2Cc3ccccc3Oc3ncccc32)s1 -31.7%
Cc1cccc(NC(=O)N2CCN(C(=O)c3nsc4ccccc34)CC2)c1C -3.53%
Cc1ccc2c(CC(=O)Nc3ccc(S(=O)(=O)N4CCCCC4C)cc3)coc2c1 (stereo not drawn) -28.2%
Cc1ccc(CNC(=O)c2cccn2-c2nnc(N3CCCC3)s2)cc1 -19.2%
COc1cccc(NC(=O)CN2C(=O)CSc3ccc(S(=O)(=O)N4CCCC4)cc32)c1 -22.5%
Clc1ccc2c(c1)-c1c(cnc3cc(-c4ccccc4)nn13)CO2 -3.53%
COc1ccc(N2CCN(C(=O)c3cnn(-c4ccc(F)cc4)c3-n3cccc3)CC2)cc1 -23.5%
CCC1CCCCN1CCCNC(=O)CN1C(=O)c2cccnc2Oc2ccc(C)cc21 (stereo not drawn) -2.57%
O=C(Nc1ccc(Br)cc1F)C1CCN(c2nc3ccccc3[nH]2)CC1 -3.46%
CCOc1ccc(C(=O)Nc2nnc(S(=O)(=O)Nc3ccccc3)s2)cc1 11.6%
CCOc1cc2[nH]c(=O)n(CCCCC(=O)N3CCN(c4ccc(OC)cc4)CC3)c(=O)c2cc1OCC -14.6%
CCOc1ccc2nc(N3CCC(C(=O)Nc4ccccc4CC)CC3)sc2c1 18%
CC(C)C(=O)N1c2nc(-c3ccco3)nn2C2(CCCCC2)[C@@H]2CCCC[C@@H]21 -17%
Cc1oc2c(cc(NS(=O)(=O)c3ccc(C(C)C)cc3)c3ccccc32)c1C(=O)O -13.8%
Cc1ccc(CCNc2ncnc3onc(-c4ccc(F)cc4)c23)cc1 3.88%
CCN(CC)C(=O)c1sc2c(c1C)c(=O)n(-c1ccc(Cl)c(Cl)c1)c(=O)n2Cc1cc(=O)n2ccccc2n1 -11.5%
COc1cccc(CNC(=O)Cn2c(=O)n3nc(-c4cccc(F)c4)nc3c3ccccc32)c1 0%
COc1ccc(NC(=O)CCn2c(=O)c3cccn3c3cccnc32)cc1Cl 6.51%
O=C(Cn1c(=O)n(CCCS(=O)(=O)C2CCCCC2)c(=O)c2ccccc21)Nc1ccccc1C(F)(F)F -5.03%
Cc1ccc(S(=O)(=O)c2[nH]c(-c3ccccc3)nc2SCC(N)=O)cc1 -7.34%
COC(=O)c1sc2ncccc2c1-n1c(C)ccc1C 10.3%
CCOC(=O)N1CCN(C(=O)c2c(C)nn(-c3cccc(C)c3)c2-n2cccc2)CC1 -29.5%
COc1ccccc1CNS(=O)(=O)c1ccc2c(c1)CC(=O)N2C -12.4%
O=C(NCc1ccc2c(c1)CCN2C(=O)c1ccccc1)c1ccccc1 -2.47%
Cc1ccc2oc3c(c(=O)c2c1)C(c1ccccc1F)N(CCCN(C)C)C3=O (stereo not drawn) 17.8%
CCOc1ccccc1NC(=O)C(CC)Sc1nc2ncccc2[nH]1 (stereo not drawn) -24.4%
COc1ccc(CNC(=O)C2=C(C)C(=O)OC23CCCCC3)cc1 -23.8%
COc1ccc(-n2ncc3c2ncn2nc(COc4ccc(Cl)cc4)nc32)cc1 -15.5%
CCCSc1nnc2c(n1)OC(c1ccc(Br)s1)Nc1ccccc1-2 (stereo not drawn) 26.6%
O=C(Cn1ncc2ccsc2c1=O)N1CCN(c2ccc(F)cc2)CC1 -13.8%
CCC1CN(C(=O)Nc2cccc3c2CCCC3)c2cc(Cl)ccc2O1 (stereo not drawn) -19.9%
Cc1cc(C(F)F)n2nc(C(=O)Nc3ccc(C(C)C)cc3)nc2n1 1.54%
Cc1oc(-c2ccccc2Cl)nc1CS(=O)CC(=O)NCc1ccc(Cl)cc1 (stereo not drawn) -12.4%
Cc1ccc(COc2ccc(-c3cc(C(F)(F)F)n4nc(C)cc4n3)cc2)cc1 -0.108%
Fc1ccc(-c2ccc(CNCCSc3nnnn3-c3ccccc3)o2)cc1 -7.8%
O=S(=O)(Nc1nc2ccccc2nc1Nc1ccccc1Br)c1ccccc1 -9.12%
COc1ccc(CNS(=O)(=O)c2cc3c4c(c2)CCN4C(=O)CC3)cc1 -37.1%
O=C(CSc1nc2c([nH]c3ccccc32)c(=O)n1-c1cccc(Cl)c1)NCC1CCCO1 (stereo not drawn) -16.3%
COc1cccc(CNC(=O)C(C)n2ncn3cccc3c2=O)c1OC (stereo not drawn) -3.44%
O=C(Cn1c2ncccc2c(=O)n1-c1ccccc1)NCc1ccccc1Cl -4.7%
CCOc1ccc(-c2cn(-c3ccc(C)cc3)c(SCC(=O)Nc3ccc(C)cc3)n2)cc1 -23.3%
Cc1ccc(NC(=O)Cc2coc3ccc(C(C)C)cc23)c(C)c1 -23.9%
COc1cccc(-n2c(SCC(=O)Nc3cccc(Cl)c3)nc3c(oc4ccccc43)c2=O)c1 -19%

From PubChem BioAssay AID1508623 (National Center for Advancing Translational Sciences (NCATS), 2021)
